Results: PubChem BioAssay AID504706 (National Center for Advancing Translational Sciences (NCATS), 2011)
In all, about 320,000 compounds went through this assay and about 200 (0.062%) were called active. Inconclusive means that the source gave no clear call. Such entries were picked first, then a sample of the others. Calls follow the shape of the dose curve; as a rule, active = well fitted activation curve with a large enough effect; inconclusive = small, poorly fitted or top-dose-only effect; inactive = no such curve, though single readings can be large or run the other way. No potency is given beside an inconclusive call; the fits are too rough.

Experiment: qHTS assay for re-activators of p53 using a Luc reporter; also: nearly all actives have a fitted effect of over 45% in size
Details: H1299 p53-A138V BP100-luciferase reporter, luminescence, 24 h; series mostly up to 92.2 µM
Method in brief: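 H1299 (p53-null), stable ts p53-A138V + BP100-Luc; 1000 cells/well, Opti-MEM/10% FBS; cpd 4 pt, 1:5; 24 h, 37 deg C, 5% CO2; detection reagent 10 min RT; luminescence.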
Potency is read from the fitted curve at half-maximal effect; tags tell the direction and shape of the fitted curve.

Q: With COc1cc2c3nc4n(c(=O)c3n(CC(=O)NCC3CCCO3)c2cc1OC)CCS4 (stereo unspecified) as the compound, how does the Potency read?
A: inconclusive [activator, single point]

Q: For Cc1ccc(C)c(NC(=O)C2CCCN(c3cnccn3)C2)c1 (stereo unspecified), which Potency is on record?
A: inactive

Q: Which Potency does the source give for COCCNS(=O)(=O)c1cc(OC)ccc1OC here?
A: inactive

Q: With O=S(=O)(/C=C/c1ccccc1)NC1CCCCCC1 as the compound, how does the Potency read?
A: inactive

Q: With C/C(=N\Nc1nc2ccccc2s1)c1ccc2c(c1)OCO2 as the compound, how does the Potency read?
A: inconclusive [activator, full curve, poor fit]

Q: With Fc1cccc(F)c1-c1nc(-c2ccncc2)no1 as the compound, how does the Potency read?
A: inconclusive [activator, full curve, poor fit]

Q: With CNc1ccccc1C(=O)OCC(=O)Nc1ccc2c(c1)OCO2 as the compound, how does the Potency read?
A: inconclusive [activator, single point]

Q: Which Potency does the source give for Cc1nn(-c2ccccc2)c(Cl)c1/C=N/NC(=O)c1ccnn1C here?
A: inconclusive [activator, partial curve]

Q: With Cc1cc(Cl)ccc1NC(=O)c1ccc2c(c1)OCO2 as the compound, how does the Potency read?
A: inconclusive [activator, full curve, poor fit]

Q: With O=C1C2C3C=CC(CO)(O3)C2C(=O)N1c1ccc(-c2ccccc2)cc1 (stereo unspecified) as the compound, how does the Potency read?
A: inconclusive [activator, partial curve, poor fit]

Q: Which Potency does the source give for CCOC(=O)CN1C(=O)S/C(=C/c2ccc(N3CCCCC3)o2)C1=O here?
A: inconclusive [activator, single point]

Q: With c1ccc2c(Oc3ccc4c(c3)OCO4)nncc2c1 as the compound, how does the Potency read?
A: inactive

Q: Which Potency does the source give for O=C(c1ccc2c3n(nc2c1)-c1ccc(Cl)cc1CO3)N1CCOCC1 here?
A: inconclusive [activator, partial curve, poor fit]

Q: Which Potency does the source give for Cc1ccc(-n2cnc3cc(NCc4cccs4)ccc32)cc1 here?
A: inconclusive [activator, partial curve]

Q: Which Potency does the source give for COc1nc2c(C)cccc2cc1-c1noc(-c2ccco2)n1 here?
A: inconclusive [activator, full curve, poor fit]

Q: Which Potency does the source give for Cc1c(NC(=O)Nc2ccc3c(c2)OCO3)cccc1[N+](=O)[O-] here?
A: inconclusive [activator, partial curve, poor fit]

Q: With O=NN(CCc1ccncc1)c1ccc(OCc2ccccc2)cc1 as the compound, how does the Potency read?
A: inconclusive [activator, partial curve, poor fit]

Q: For Cc1noc(C)c1C(=O)Nc1nc(-c2ccc(F)cc2)cs1, which Potency is on record?
A: inconclusive [activator, partial curve, poor fit]

Q: For O=[N+]([O-])c1ccc(N/N=C/c2cccc(O)c2)cc1, which Potency is on record?
A: inactive

Q: With CCOc1cc(C(=O)Nc2ccc3c(c2)OCO3)ccc1OC(F)F as the compound, how does the Potency read?
A: inconclusive [activator, single point]

Q: Which Potency does the source give for NC(=O)C1CCN(C(=O)CSCc2ccccc2Cl)CC1 here?
A: inconclusive [activator, partial curve, poor fit]

Q: For O=C(NC(=O)c1ccccc1)NC1(C(F)(F)F)OCCO1, which Potency is on record?
A: inconclusive [activator, partial curve, poor fit]

Q: Which Potency does the source give for COc1ccc(C(=O)NC2CCCc3ccccc32)c(OC)c1OC (stereo unspecified) here?
A: inactive

Q: Which Potency does the source give for Cc1cc(C)cc(OCC(=O)OC/C(O)=C(\C#N)c2nc3ccccc3[nH]2)c1 here?
A: inactive

Q: With O=C(CN1CCN(c2ccccc2F)CC1)c1ccc2c(c1)OCO2 as the compound, how does the Potency read?
A: inconclusive [activator, partial curve, poor fit]

Q: With O=C(N/N=C/c1nn(-c2ccccc2)cc1-c1ccccc1)c1ccncc1 as the compound, how does the Potency read?
A: inconclusive [activator, partial curve, poor fit]

Q: With Cc1ccc(C2CCN(C(=S)Nc3cccc(Cl)c3)C2)cc1 (stereo unspecified) as the compound, how does the Potency read?
A: inconclusive [activator, partial curve, poor fit]

Q: Which Potency does the source give for O=C(Cc1ccc(Br)cc1)OCC(=O)c1ccc2c(c1)OCCO2 here?
A: inactive

Q: For O=C(CC1CCCC1)Nc1ccc2c(c1)CCC2, which Potency is on record?
A: inactive

Q: Which Potency does the source give for CC1CCCN(C(=O)c2ccc(Cl)c(S(=O)(=O)N3CCCCCC3)c2)C1 (stereo unspecified) here?
A: inconclusive [activator, single point]

Q: Which Potency does the source give for COc1cc(C2Nc3ccc4ncccc4c3C3=C2C(=O)CC(C)(C)C3)cc(OC)c1O (stereo unspecified) here?
A: inactive

Q: For O=Cc1cccn1Cc1ccc(Cl)cc1Cl, which Potency is on record?
A: inactive

Q: Which Potency does the source give for Cc1cc(C)c(C#N)c(SCC(=O)Nc2cc(C)on2)n1 here?
A: inconclusive [activator, partial curve, poor fit]

Q: With COC(=O)c1c(-c2ccc(C)cc2)csc1NC(=O)C1CC=CCC1C(=O)O (stereo unspecified) as the compound, how does the Potency read?
A: inconclusive [activator, full curve]

Q: Which Potency does the source give for CCc1ccc(CNC(=O)Cn2nc(-c3ccccc3)ccc2=O)cc1 here?
A: inactive

Q: Which Potency does the source give for CC1CN(c2ncnc3c2cnn3-c2ccc(Cl)cc2)CC(C)O1 (stereo unspecified) here?
A: inconclusive [activator, full curve, poor fit]

Q: For COC(=O)C(C)(C)ONC(=O)Nc1ccc(C)cc1, which Potency is on record?
A: inconclusive [activator, full curve, poor fit]

Q: With Brc1ccc(/C=N/Nc2ccccn2)cc1 as the compound, how does the Potency read?
A: inconclusive [activator, partial curve, poor fit]

Q: Which Potency does the source give for Cc1ccc(C(=O)c2c3ccc(C(F)(F)F)cc3[n+]([O-])n2CCCN)cc1 here?
A: inconclusive [activator, partial curve, poor fit]

Q: For COc1cc(/C=N/OCC(=O)Nc2ccc(OC(F)F)cc2)ccc1OCc1ccccc1, which Potency is on record?
A: inconclusive [activator, full curve, poor fit]

Q: For O=C(OCc1cc(=O)n2c(n1)sc1ccccc12)c1cccc(O)c1, which Potency is on record?
A: inconclusive [activator, partial curve, poor fit]

Q: For O=C1CCC(=O)N1CCCCCc1nc(-c2ccccc2)no1, which Potency is on record?
A: inconclusive [activator, full curve, poor fit]

Q: For CC(=O)N[C@H]1C[C@@H]1c1ccccc1, which Potency is on record?
A: inactive

Q: With CN(C(=O)CSc1nnc(-c2ccco2)o1)C1CCCCC1 as the compound, how does the Potency read?
A: inconclusive [activator, partial curve, poor fit]

Q: With COc1ccc(S(=O)(=O)N2CCC(C(=O)Nc3nccs3)CC2)cc1 as the compound, how does the Potency read?
A: inconclusive [activator, partial curve, poor fit]

Q: Which Potency does the source give for Cn1c2c(c(=O)[nH]c1=O)C(c1ccc(O)cc1)C1=C(N2)c2ccccc2C1=O (stereo unspecified) here?
A: inactive

Q: With O=C(/C=C/c1ccc(Cl)c([N+](=O)[O-])c1)Nc1cccnc1 as the compound, how does the Potency read?
A: inconclusive [activator, full curve, poor fit]

Q: For Cc1ccccc1-c1noc(N)c1C#N, which Potency is on record?
A: inconclusive [activator, partial curve, poor fit]

Q: With O=C1N(Cc2cccc(Cl)c2)C[C@@H]2C[C@@H](c3cccn3-c3ccccn3)N3CCC[C@@]123 as the compound, how does the Potency read?
A: inactive

Q: Which Potency does the source give for O=C(COc1ccc2ccccc2c1Br)Nc1cccnc1 here?
A: inactive

Q: Which Potency does the source give for Cn1ncc([N+](=O)[O-])c1C(=O)Nc1ccc(C2CCCCC2)cc1 here?
A: inconclusive [activator, full curve, poor fit]

Q: For Cc1cccc(-c2cc3nc4c(c(NCc5ccco5)n3n2)CCCC4)c1, which Potency is on record?
A: inconclusive [activator, partial curve, poor fit]

Q: Which Potency does the source give for O=C(N/N=C/c1ccccn1)c1ccncc1 here?
A: inconclusive [activator, full curve, poor fit]

Q: With O=C(N/N=C/c1ccccc1OC(=O)c1ccc2c(c1)OCO2)c1ccccc1 as the compound, how does the Potency read?
A: inconclusive [activator, partial curve, poor fit]

Q: With CCCCNC(=O)CN(Cc1ccco1)S(=O)(=O)c1ccc(C(C)=O)cc1 as the compound, how does the Potency read?
A: inconclusive [activator, full curve]

Q: Which Potency does the source give for Cc1ccc(Oc2cnc3ccccc3n2)cc1 here?
A: inconclusive [activator, full curve, poor fit]

Q: Which Potency does the source give for O=C(NCCSCc1ccco1)Nc1cccc(Cl)c1 here?
A: inactive

Q: With CCOC(=O)NNc1nncc2ccccc12 as the compound, how does the Potency read?
A: inactive

Q: For Cc1cc(-n2c(C)cc(C(=O)CSc3ccc4c(c3)OCCO4)c2C)no1, which Potency is on record?
A: inconclusive [activator, single point]

Q: With COC(=O)c1ccc(CSc2nc3ccccc3o2)cc1 as the compound, how does the Potency read?
A: inconclusive [activator, partial curve, poor fit]

Q: With O=c1[nH]c2c(s1)C(c1ccccc1)C1C3CCC(C3)C1S2 (stereo unspecified) as the compound, how does the Potency read?
A: inactive

Q: Which Potency does the source give for CCCn1cc(SCC(=O)Nc2nnc(C)s2)c2ccccc21 here?
A: inconclusive [activator, single point]

Q: With O=C(c1cnn(-c2nc3ccccc3s2)c1)c1ccccc1O as the compound, how does the Potency read?
A: inconclusive [activator, partial curve, poor fit]

Q: For COc1ccc(C(C(=O)NC2CCCCC2)N(C(=O)Cc2c[nH]c3ccccc23)c2ccccc2C)cc1OC (stereo unspecified), which Potency is on record?
A: inactive

Q: For COc1ccc(CCNC(=O)CCCOc2ccc(C)cc2)cc1OC, which Potency is on record?
A: inactive

Q: Which Potency does the source give for Cc1c(C(=O)OC(C)CCN(C)C)oc2ccccc12 (stereo unspecified) here?
A: inconclusive [activator, single point]

Q: For COc1ccc(-c2noc(-c3ccccc3C(=O)NCc3ccco3)n2)cc1OC, which Potency is on record?
A: inactive

Q: Which Potency does the source give for CCN(CC)C(=O)c1[nH]cnc1C(=O)N[C@@H](C)C(=O)OCc1ccccc1 here?
A: inactive

Q: Which Potency does the source give for O=C(NNC(=O)C12CC3CC(CC(C3)C1)C2)c1cccc(O)c1 here?
A: inactive

Q: Which Potency does the source give for COC(=O)c1ccc(Cn2nc(-c3cc(C)ccc3C)ccc2=O)cc1 here?
A: inactive

Q: Which Potency does the source give for CCN1CCN(Cc2ccc(NC(=O)c3ccc(C)c(NC(=O)c4nccn4C)c3)cc2C(F)(F)F)CC1 here?
A: inconclusive [activator, full curve, poor fit]
